In patent publication US20100260668A1 (published 2010):
Values belong to the binder of their own block, whether it stands above or below them.

Columns and labels:
[1] = target: human DLL4 extracellular domain (human, UniProt Q9NR61 fragment); assay: cell-based or functional assay
[2] = target: T1, recombinant human VEGF165 (human, UniProt P15692-4 27-191); assay: cell-based or functional assay
T1 sequence (looked up): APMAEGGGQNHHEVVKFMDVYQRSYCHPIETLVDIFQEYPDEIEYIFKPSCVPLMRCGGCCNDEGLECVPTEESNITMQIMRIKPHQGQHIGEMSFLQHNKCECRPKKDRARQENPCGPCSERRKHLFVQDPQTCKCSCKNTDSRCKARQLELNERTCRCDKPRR

VEGF [3] = target: T2, VEGF (UniProt P15692 27-191, limits assumed); assay: direct bind ELISA, C-terminal VD
T2 construct: bought antigen coated on the ELISA plate
T2 sequence (looked up): T1 sequence (looked up)

PlGF = target: T3, PlGF (UniProt P49763-2 21-149, limits assumed); assay: direct bind ELISA, N-terminal VD
T3 construct: bought antigen coated on the ELISA plate; also called Placental GF
T3 sequence (looked up): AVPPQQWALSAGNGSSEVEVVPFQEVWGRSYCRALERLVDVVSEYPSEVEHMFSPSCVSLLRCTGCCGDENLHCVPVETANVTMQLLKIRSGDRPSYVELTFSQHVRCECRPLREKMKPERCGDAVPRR

[4] = target: T4, ErbB3 (ErbB3 ECD/FC Chimera-His tag, R&D 348-RB-050) (UniProt P21860 fragment, limits assumed); assay: direct bind ELISA, coated antigen; C-terminal VD of DVD-Ig
T4 construct: extracellular domain; Bought antigen coated on the ELISA plate

VEGF [5] = target: T2, VEGF; assay: direct bind ELISA, N-terminal VD

B1: DVD044 (bispecific antibody, human IgG1, kappa)
heavy: EVQLVESGGGLVQPGGSLRLSCAASGFTFTDNWISWVRQAPGKGLEWVGYISPNSGFTYYADSVKGRFTISADTSKNTAYLQMNSLRAEDTAVYYCARDNFGGYFDYWGQGTLVTVSSASTKGPEVQLVESGGGLVQPGGSLRLSCAASGYTFTNYGMNWVRQAPGKGLEWVGWINTYTGEPTYAADFKRRFTFSLDTSKSTAYLQMNSLRAEDTAVYYCAKYPHYYGSSHWYFDVWGQGTLVTVSS[omitted - human IgG1 constant region]
light: DIQMTQSPSSLSASVGDRVTITCRASQDVSTAVAWYQQKPGKAPKLLIYSASFLYSGVPSRFSGSGSGTDFTLTISSLQPEDFATTYYCQQSYTGTVTFGQGTKVEIKRTVAAPDIQMTQSPSSLSASVGDRVTITCSASQDISNYLNWYQQKPGKAPKVLIYFTSSLHSGVPSRFSGSGSGTDFTLTISSLQPEDFATYYCQQYSTVPWTFGQGTKVEIKRTVAAPSVFIFPPSDEQLKSGTASVVCLLNNFYPREAKVQWKVDNALQSGNSQESVTEQDSKDSTYSLSSTLTLSKADYEKHKVYACEVTHQGLSSPVTKSFNRGEC
Soluble Flt1 Assay, % of Neutralization @ 9.2 nM Ab [1]: 39.8%
Soluble Flt1 Assay, % of Neutralization @ 27.7 nM Ab [1]: 76.2%
Soluble Flt1 Assay, % of Neutralization @ 83.3 nM Ab [1]: 79.9%

B2: DVD049 (bispecific antibody, human IgG1, kappa)
heavy: EVQLVESGGGLVQPGGSLRLSCAASGYTFTNYGMNWVRQAPGKGLEWVGWINTYTGEPTYAADFKRRFTFSLDTSKSTAYLQMNSLRAEDTAVYYCAKYPHYYGSSHWYFDVWGQGTLVTVSSASTKGPEVQLVESGGGLVQPGGSLRLSCAASGFSFSSEPISWVRQAPGKGLEWVSSITGKNGYTYYADSVKGRFTISADTSKNTAYLQMNSLRAEDTAVYYCARWGKKVYGMDVWGQGTLVTVSS[omitted - human IgG1 constant region]
light: DIQMTQSPSSLSASVGDRVTITCSASQDISNYLNWYQQKPGKAPKVLIYFTSSLHSGVPSRFSGSGSGTDFTLTISSLQPEDFATYYCQQYSTVPWTFGQGTKVEIKRTVAAPDIQMTQSPSSLSASVGDRVTITCRASQSISSYLAWYQQKPGKAPKLLIYGASSRASGVPSRFSGSGSGTDFTLTISSLQPEDFATYYCQQYMSVPITFGQGTKVEIKRTVAAPSVFIFPPSDEQLKSGTASVVCLLNNFYPREAKVQWKVDNALQSGNSQESVTEQDSKDSTYSLSSTLTLSKADYEKHKVYACEVTHQGLSSPVTKSFNRGEC
% inhibition of HUVEC proliferation at 0.67 nM [2]: 43%
% inhibition of HUVEC proliferation at 6.7 nM [2]: 86%
% inhibition of HUVEC proliferation at 67 nM [2]: 108%

B3: DVD579 (bispecific antibody, human IgG1, kappa)
heavy: QVQLQQSGAELVKPGASVKISCKASGYTFTDYYINWVKLAPGQGLEWIGWIYPGSGNTKYNEKFKGKATLTIDTSSSTAYMQLSSLTSEDTAVYFCVRDSPFFDYWGQGTLLTVSSASTKGPSVFPLAPEVQLVESGGGLVQPGGSLRLSCAASGYTFTNYGMNWVRQAPGKGLEWVGWINTYTGEPTYAADFKRRFTFSLDTSKSTAYLQMNSLRAEDTAVYYCAKYPHYYGSSHWYFDVWGQGTLVTVSS[omitted - human IgG1 constant region]
light: DIVLTQSPDSLAVSLGERVTMNCKSSQSLLNSGMRKSFLAWYQQKPGQSPKLLIYWASTRESGVPDRFTGSGSGTDFTLTISSVQAEDVAVYYCKQSYHLFTFGSGTKLEIKRTVAAPSVFIFPPDIQMTQSPSSLSASVGDRVTITCSASQDISNYLNWYQQKPGKAPKVLIYFTSSLHSGVPSRFSGSGSGTDFTLTISSLQPEDFATYYCQQYSTVPWTFGQGTKVEIKRTVAAPSVFIFPPSDEQLKSGTASVVCLLNNFYPREAKVQWKVDNALQSGNSQESVTEQDSKDSTYSLSSTLTLSKADYEKHKVYACEVTHQGLSSPVTKSFNRGEC
notes: HC linker long, LC linker long; also called DVD-Ig DVD579
EC50 (VEGF [3]): 47.9 nM
EC50 (PlGF): 1.18 nM

B7: DVD576 (bispecific antibody, human IgG1, kappa)
heavy: EVQLVESGGGLVQPGGSLRLSCAASGFTINASWIHWVRQAPGKGLEWVGAIYPYSGYTNYADSVKGRFTISADTSKNTAYLQMNSLRAEDTAVYYCARWGHSTSPWAMDYWGQGTLVTVSSASTKGPQVQLQQSGAELVKPGASVKISCKASGYTFTDYYINWVKLAPGQGLEWIGWIYPGSGNTKYNEKFKGKATLTIDTSSSTAYMQLSSLTSEDTAVYFCVRDSPFFDYWGQGTLLTVSS[omitted - human IgG1 constant region]
light: DIQMTQSPSSLSASVGDRVTITCRASQVIRRSLAWYQQKPGKAPKLLIYAASNLASGVPSRFSGSGSGTDFTLTISSLQPEDFATYYCQQSNTSPLTFGQGTKVEIKRTVAAPDIVLTQSPDSLAVSLGERVTMNCKSSQSLLNSGMRKSFLAWYQQKPGQSPKLLIYWASTRESGVPDRFTGSGSGTDFTLTISSVQAEDVAVYYCKQSYHLFTFGSGTKLEIKRTVAAPSVFIFPPSDEQLKSGTASVVCLLNNFYPREAKVQWKVDNALQSGNSQESVTEQDSKDSTYSLSSTLTLSKADYEKHKVYACEVTHQGLSSPVTKSFNRGEC
notes: outer AB071 (VEGF), inner AB047 (PlGF); HC linker short, LC linker short; also called DVD-Ig DVD576
EC50 (VEGF [5]): 16.2 nM

B8: DVD400 (bispecific antibody, human IgG1, kappa)
heavy: [omitted - about 120 residues]ASTKGPSVFPLAPEVQLVESGGGLVQPGGSLRLSCAASGFTFSIYSMNWVRQAPGKGLEWVSYISSSSSTIYYADSVKGRFTISRDNAKNSLYLQMNSLRDEDTAVYYCARDRGDFDAFDIWGQGTMVTVSS[omitted - human IgG1 constant region]
light: [omitted - about 100 residues]RTVAAPSVFIFPPDIQMTQSPSSLSASVGDRVTITCQASQDITNYLNWYQQKPGKAPKLLIYDASNLETGVPSRFSGSGSGTDFTFTISSLQPEDIATYNCQQCENFPITFGQGTRLEIKRTVAAPSVFIFPPSDEQLKSGTASVVCLLNNFYPREAKVQWKVDNALQSGNSQESVTEQDSKDSTYSLSSTLTLSKADYEKHKVYACEVTHQGLSSPVTKSFNRGEC
notes: DVD-Ig; HC linker long, LC linker long; also called DVD400H; DVD400L
EC50 [4]: 7.74 nM

B9: DVD408 (bispecific antibody, human IgG1, kappa)
heavy: [omitted - about 120 residues]ASTKGPEVQLVESGGGLVQPGGSLRLSCAASGFTFSIYSMNWVRQAPGKGLEWVSYISSSSSTIYYADSVKGRFTISRDNAKNSLYLQMNSLRDEDTAVYYCARDRGDFDAFDIWGQGTMVTVSS[omitted - human IgG1 constant region]
light: [omitted - about 100 residues]RTVAAPSVFIFPPDIQMTQSPSSLSASVGDRVTITCQASQDITNYLNWYQQKPGKAPKLLIYDASNLETGVPSRFSGSGSGTDFTFTISSLQPEDIATYNCQQCENFPITFGQGTRLEIKRTVAAPSVFIFPPSDEQLKSGTASVVCLLNNFYPREAKVQWKVDNALQSGNSQESVTEQDSKDSTYSLSSTLTLSKADYEKHKVYACEVTHQGLSSPVTKSFNRGEC
notes: DVD-Ig; HC linker short, LC linker long; also called DVD408H; DVD408L
EC50 [4]: 4.37 nM

B10: DVD404 (bispecific antibody, human IgG1, kappa)
heavy: [omitted - about 120 residues]ASTKGPSVFPLAPEVQLVESGGGLVQPGGSLRLSCAASGFTFSIYSMNWVRQAPGKGLEWVSYISSSSSTIYYADSVKGRFTISRDNAKNSLYLQMNSLRDEDTAVYYCARDRGDFDAFDIWGQGTMVTVSS[omitted - human IgG1 constant region]
light: [omitted - about 100 residues]RTVAAPDIQMTQSPSSLSASVGDRVTITCQASQDITNYLNWYQQKPGKAPKLLIYDASNLETGVPSRFSGSGSGTDFTFTISSLQPEDIATYNCQQCENFPITFGQGTRLEIKRTVAAPSVFIFPPSDEQLKSGTASVVCLLNNFYPREAKVQWKVDNALQSGNSQESVTEQDSKDSTYSLSSTLTLSKADYEKHKVYACEVTHQGLSSPVTKSFNRGEC
notes: DVD-Ig; HC linker long, LC linker short; also called DVD404H; DVD404L
EC50 [4]: 4.34 nM

Other lines, results leading:

EC50 (VEGF [3]): 12.7 nM
EC50 (PlGF): 0.13 nM
B4: DVD587 (bispecific antibody, human IgG1, kappa)
heavy: B3 heavy
light: DIVLTQSPDSLAVSLGERVTMNCKSSQSLLNSGMRKSFLAWYQQKPGQSPKLLIYWASTRESGVPDRFTGSGSGTDFTLTISSVQAEDVAVYYCKQSYHLFTFGSGTKLEIKRTVAAPDIQMTQSPSSLSASVGDRVTITCSASQDISNYLNWYQQKPGKAPKVLIYFTSSLHSGVPSRFSGSGSGTDFTLTISSLQPEDFATYYCQQYSTVPWTFGQGTKVEIKRTVAAPSVFIFPPSDEQLKSGTASVVCLLNNFYPREAKVQWKVDNALQSGNSQESVTEQDSKDSTYSLSSTLTLSKADYEKHKVYACEVTHQGLSSPVTKSFNRGEC
notes: HC linker long, LC linker short; also called DVD-Ig DVD587

EC50 [4]: 97.4 nM
B5: DVD686 (bispecific antibody, human IgG1, kappa)
heavy: [omitted - about 120 residues]ASTKGPEVQLVESGGGLVQPGGSLRLSCAASGFTFSIYSMNWVRQAPGKGLEWVSYISSSSSTIYYADSVKGRFTISRDNAKNSLYLQMNSLRDEDTAVYYCARDRGDFDAFDIWGQGTMVTVSS[omitted - human IgG1 constant region]
light: [omitted - about 100 residues]RTVAAPDIQMTQSPSSLSASVGDRVTITCQASQDITNYLNWYQQKPGKAPKLLIYDASNLETGVPSRFSGSGSGTDFTFTISSLQPEDIATYNCQQCENFPITFGQGTRLEIKRTVAAPSVFIFPPSDEQLKSGTASVVCLLNNFYPREAKVQWKVDNALQSGNSQESVTEQDSKDSTYSLSSTLTLSKADYEKHKVYACEVTHQGLSSPVTKSFNRGEC
notes: DVD-Ig; HC linker short, LC linker short; also called DVD686H; DVD686L

EC50 (VEGF [5]): 18.4 nM
B6: DVD584 (bispecific antibody, human IgG1, kappa)
heavy: EVQLVESGGGLVQPGGSLRLSCAASGFTINASWIHWVRQAPGKGLEWVGAIYPYSGYTNYADSVKGRFTISADTSKNTAYLQMNSLRAEDTAVYYCARWGHSTSPWAMDYWGQGTLVTVSSASTKGPSVFPLAPQVQLQQSGAELVKPGASVKISCKASGYTFTDYYINWVKLAPGQGLEWIGWIYPGSGNTKYNEKFKGKATLTIDTSSSTAYMQLSSLTSEDTAVYFCVRDSPFFDYWGQGTLLTVSS[omitted - human IgG1 constant region]
light: DIQMTQSPSSLSASVGDRVTITCRASQVIRRSLAWYQQKPGKAPKLLIYAASNLASGVPSRFSGSGSGTDFTLTISSLQPEDFATYYCQQSNTSPLTFGQGTKVEIKRTVAAPSVFIFPPDIVLTQSPDSLAVSLGERVTMNCKSSQSLLNSGMRKSFLAWYQQKPGQSPKLLIYWASTRESGVPDRFTGSGSGTDFTLTISSVQAEDVAVYYCKQSYHLFTFGSGTKLEIKRTVAAPSVFIFPPSDEQLKSGTASVVCLLNNFYPREAKVQWKVDNALQSGNSQESVTEQDSKDSTYSLSSTLTLSKADYEKHKVYACEVTHQGLSSPVTKSFNRGEC
notes: outer AB071 (VEGF), inner AB047 (PlGF); HC linker long, LC linker long; also called DVD-Ig DVD584
